Laboratory results taken from the RNAGym collection of RNA variant scans (doi:10.7554/elife.90254).
Read counts are not given, so values of variants with three or more changes are uncertain.

B1: LINE1-mini (parent)
chain: GGCAGAGCUCAACACAGCGUGGCAAAGUGGCUGUGGCUAGACUGCC

Variants of: B1
Test: self-cleavage, relative activity (ratio to wild type); higher = more cleavage; in vitro, sequencing; the parent is a self-cleaving ribozyme

Variant	self-cleavage
G17U A24C A25C G40U	0.02
G17C G40C A41C	0.03
G17C C31U A39G G44U	0.03
G17U A25C A39G A41G	0.01
G17C G30A U34C U43C	0.06
G17C C18G G35A C37G	0.06
G17C U20G U28C G44C	0.07
G17U A41G C42U G44C	0.02
G17C U32A G44U	0.05
G17A U28G U32C	0.2
G17C A26U C42A	0.06
G17A U38G C46U	0.01
G17C G22U A24G	0.1
G17C G33A G36U	0.09
G17C G22U A41G	0.11
G17C G22A A24C U38C G40U C46U	0.1
G17C G19A G30A C37G	0.01
G17C G29A G44U	0.08
G17C U20C G29U	0.12
G17U A25G G30U G33A	0.01
G17C G21C G27U	0.71

Variant	self-cleavage
G17C G19C C45A	0.07
G17C U20A G27A	0.56
G17C G21U G44C	0.07
G17U A26G G40A U43C	0.05
G17U A26C A39U	0.31
G17C U38G G40C	0.05
G17C U32A A41U	0.08
G17U A24U G44U	0.04
G17C U38G G40A C42U	0.06
G17U A24U G36C C37U	0.04
G17U A25G A26U G27U U28A G35U A41U	0.02
G17C G30A U43A	0.14
G17C G27C G29U	0.39
G17C A25G C46G	0.04
G17U A26C C37U G44C	0.03
G17U A24U G44U C45A	0.04
G17C U20C A24U U32C C37U	0.04
G17C G19U C23G	0.2
G17C G21A G29U G33U G35C G44A	0.04
G17U A24U G40C	0.04
G17A U43A C46A	0.01

Variant	self-cleavage
G17C U20C U28C C31G	0.01
G17C G19C C37U G40C G44C	0
G17C A26G G35C A39C	0.03
G17C U20G U28A G36C A39G	0.03
G17C A25C C42A C45U	0.01
G17C A25C U32A A39C	0.03
G17C U28A G33U G44U	0.01
G17C C31G C46G	0.28
G17C A26G U38G	0.01
G17C C23G G29A G30U C31A	0.25
G17U A26C G27C	0.02
G17C U20C G21A A24U C45A	0.02
G17C G21C G22A A26U	0.41
G17C G19U C42G	0.04
G17C A26G G40A	0.02
G17C G27U U38G	0.01
G17C C31A C45A	0.05
G17C G19C G40A U43C	0.02
G17C A25U G33A	0.05
G17C G22U C37G U38C C46A	0.01
G17C C18A G19C C23A A25G	0.92

Variant	self-cleavage
G17U A39G C42U C46G	0.02
G17C C18G G21C C46A	0.05
G17C G21U C42U	0.34
G17U A25C A26C G35A	0.08
G17C C37G A39U	0.04
G17C C18U G35A U38C	0.01
G17C G27U G36U	0.15
G17C C18A G27U U32C C37U	0.01
G17C G36A G40C C45G	0.03
G17C U38A C46U	0.04
G17C G22U U34C G35A C45U C46A	0.05
G17C G27U G30A C37A A39U	0.03
G17U A24U C42U	0.06
G17U A26C G29C	2.24
G17C C18U A26U G27C	0.42
G17A U38G G44A	0.01
G17C G35A C45G	0.03
G17C U20A G30A G44U	0.13
G17C G29U G30C	0.06
G17C G29U G30A	0.13
G17C G36A G40A G44C	0.02
